In publication PMC5398727, “GP73 represses host innate immune response to promote virus replication by facilitating MAVS and TRAF6 degradation” (PLoS Pathogens, 2017):
No constants are given. Whether binding was seen depends on the method and setting. In cells and extracts the contact can be indirect. Some results given as binding are weak or reduced against the parent protein; the word gives no strength. For some of these results: Sequences can lack the tags named with a protein.

Amino acid sequences for entries named in this document (tags omitted).
UniProt Q7Z434: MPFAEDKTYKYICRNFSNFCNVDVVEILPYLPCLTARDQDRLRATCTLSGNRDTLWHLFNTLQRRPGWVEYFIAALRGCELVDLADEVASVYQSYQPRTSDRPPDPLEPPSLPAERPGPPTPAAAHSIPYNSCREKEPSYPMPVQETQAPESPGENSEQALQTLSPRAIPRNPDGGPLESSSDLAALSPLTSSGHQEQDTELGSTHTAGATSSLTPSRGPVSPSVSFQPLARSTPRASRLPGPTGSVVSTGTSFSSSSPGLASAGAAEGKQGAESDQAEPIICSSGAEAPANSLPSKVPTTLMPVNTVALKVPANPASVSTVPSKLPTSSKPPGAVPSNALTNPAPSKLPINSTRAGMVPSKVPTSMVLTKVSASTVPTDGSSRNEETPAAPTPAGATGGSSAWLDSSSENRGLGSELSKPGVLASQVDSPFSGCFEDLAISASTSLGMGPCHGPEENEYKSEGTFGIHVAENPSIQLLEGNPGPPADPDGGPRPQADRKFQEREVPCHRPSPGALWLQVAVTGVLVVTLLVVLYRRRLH

Experiments:
GST-GP73 (aa36-401) = target: T1, GST-GP73 (aa36-401) (human, UniProt Q8NBJ4 36-401); assay: pull-down; lysates of HEK293 transfected with Flag-MAVS or Flag-TRAF6 (20 mM Tris-Cl, 200 mM NaCl, 1 mM EDTA, 0.5% NP-40, pH 7.5) with 10 μg purified GST or 20 μg GST-GP73 on glutathione Sepharose overnight at 4°C; WB (Fig 3F); only the target purified
T1 construct: also called recombinant GST-GP73; GST-fused GP73; source: E. coli BL21, purified (glutathione Sepharose 4B)
T1 sequence (looked up): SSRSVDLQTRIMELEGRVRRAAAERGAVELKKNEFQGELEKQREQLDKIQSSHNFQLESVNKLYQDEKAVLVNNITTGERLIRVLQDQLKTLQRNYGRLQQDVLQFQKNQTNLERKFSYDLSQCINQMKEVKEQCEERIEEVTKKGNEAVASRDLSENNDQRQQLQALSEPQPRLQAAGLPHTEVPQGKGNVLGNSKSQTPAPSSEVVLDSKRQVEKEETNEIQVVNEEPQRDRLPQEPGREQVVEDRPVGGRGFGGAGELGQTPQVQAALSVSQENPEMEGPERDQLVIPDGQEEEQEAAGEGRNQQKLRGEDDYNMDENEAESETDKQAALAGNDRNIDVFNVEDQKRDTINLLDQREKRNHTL

TRAF6-aa 289–522 = target: T2, TRAF6-aa 289–522 (UniProt Q9Y4K3); assay: co-IP; HEK293 co-transfected with GP73 (1 μg) and TRAF6 or its deletion mutants (3 μg) for 24 h; immunoprecipitation and WB with indicated antibodies (Fig 4A)
T2 sequence: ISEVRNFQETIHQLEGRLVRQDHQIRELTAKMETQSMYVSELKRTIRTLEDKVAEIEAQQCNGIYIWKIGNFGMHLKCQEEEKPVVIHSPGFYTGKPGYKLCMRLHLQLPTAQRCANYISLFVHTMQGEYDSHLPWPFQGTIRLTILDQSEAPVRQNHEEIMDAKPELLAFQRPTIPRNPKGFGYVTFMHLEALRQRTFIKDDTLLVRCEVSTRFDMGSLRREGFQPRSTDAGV

TRAF6-aa 1–357 = target: T3, TRAF6-aa 1–357 (UniProt Q9Y4K3); assay: as above
T3 sequence: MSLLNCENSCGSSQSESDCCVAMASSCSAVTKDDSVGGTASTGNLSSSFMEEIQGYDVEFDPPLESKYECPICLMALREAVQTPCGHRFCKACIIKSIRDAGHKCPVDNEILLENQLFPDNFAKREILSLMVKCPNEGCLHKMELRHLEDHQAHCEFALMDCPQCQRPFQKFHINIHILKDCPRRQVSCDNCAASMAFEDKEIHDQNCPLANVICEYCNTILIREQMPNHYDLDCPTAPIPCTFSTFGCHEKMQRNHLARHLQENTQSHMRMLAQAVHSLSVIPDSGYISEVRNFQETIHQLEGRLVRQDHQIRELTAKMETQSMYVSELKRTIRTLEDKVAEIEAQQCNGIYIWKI

TRAF6-aa 1–288 = target: T4, TRAF6-aa 1–288 (UniProt Q9Y4K3); assay: as above
T4 sequence: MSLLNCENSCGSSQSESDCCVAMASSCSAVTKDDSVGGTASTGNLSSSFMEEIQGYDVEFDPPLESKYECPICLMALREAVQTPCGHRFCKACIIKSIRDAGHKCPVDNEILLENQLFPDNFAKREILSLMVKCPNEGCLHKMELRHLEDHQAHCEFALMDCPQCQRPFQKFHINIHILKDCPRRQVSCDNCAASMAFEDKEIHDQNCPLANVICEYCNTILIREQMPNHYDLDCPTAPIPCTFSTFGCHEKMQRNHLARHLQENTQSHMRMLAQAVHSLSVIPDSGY

TRAF6-aa 358–522 = target: T5, TRAF6-aa 358–522 (UniProt Q9Y4K3); assay: as above
T5 sequence: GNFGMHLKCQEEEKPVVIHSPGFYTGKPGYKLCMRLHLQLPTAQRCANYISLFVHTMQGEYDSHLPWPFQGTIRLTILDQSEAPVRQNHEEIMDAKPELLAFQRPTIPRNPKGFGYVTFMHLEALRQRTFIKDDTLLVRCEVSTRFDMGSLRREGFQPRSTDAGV

[1] = target: Flag-MAVS (mitochondrial antiviral signaling protein), full length (UniProt Q7Z434); assay: co-IP; HEK293 co-transfected with GP73 plasmid and Flag-tagged (or indicated) plasmids for 24 h; lysis in 50 mM Tris-HCl, 150 mM NaCl, 1% Triton X-100, 1 mM EDTA, 10% glycerol, pH 7.4; immunoprecipitated with anti-Flag (or IgG), washed with 300 mM NaCl buffer, WB; Fig 3B, 3C, 4C-F, S4B (for Fig 4C-F the antibodies are only 'indicated')
[2] = target: endogenous MAVS (HEK293) (human (endogenous in HEK293)) (UniProt Q7Z434); assay: co-IP; endogenous proteins, HEK293 cells infected with SeV for indicated times; immunoprecipitation and WB with antibodies against indicated proteins (Fig 3D)

Flag-MAVS (mitochondrial antiviral signaling protein), full length (from UniProt Q7Z434 1-540)
binding (GST-GP73 (aa36-401)): binds

B1: GP73 (plasmid of Fig 4A, tag not stated) (protein, UniProt Q8NBJ4 1-401)
chain: MMGLGNGRRSMKSPPLVLAALVACIIVLGFNYWIASSRSVDLQTRIMELEGRVRRAAAERGAVELKKNEFQGELEKQREQLDKIQSSHNFQLESVNKLYQDEKAVLVNNITTGERLIRVLQDQLKTLQRNYGRLQQDVLQFQKNQTNLERKFSYDLSQCINQMKEVKEQCEERIEEVTKKGNEAVASRDLSENNDQRQQLQALSEPQPRLQAAGLPHTEVPQGKGNVLGNSKSQTPAPSSEVVLDSKRQVEKEETNEIQVVNEEPQRDRLPQEPGREQVVEDRPVGGRGFGGAGELGQTPQVQAALSVSQENPEMEGPERDQLVIPDGQEEEQEAAGEGRNQQKLRGEDDYNMDENEAESETDKQAALAGNDRNIDVFNVEDQKRDTINLLDQREKRNHTL
binding (TRAF6-aa 289–522): binds
binding (TRAF6-aa 1–357): binds
binding (TRAF6-aa 1–288): no binding
binding (TRAF6-aa 358–522): no binding

B2: HA-GP73-Myc (protein, UniProt Q8NBJ4 1-401)
chain: B1 chain
binding [1]: binds

B3: endogenous GP73 (HEK293) (protein, UniProt Q8NBJ4 1-401)
chain: B1 chain
binding [2]: binds
